The campaign covered roughly 410,000 compounds. About 6,400 (1.6%) were called active. The inconclusive results got no clear call from the source; some entries with a clear call stand among them for comparison. Calls follow the shape of the dose curve; as a rule, active = well fitted inhibition curve with a large enough effect; inconclusive = small, poorly fitted or top-dose-only effect; inactive = no such curve, though single readings can be large or run the other way. Potencies of inconclusive entries are left out as doubtful fits. Square brackets hold non-standard residues; d marks the D form. Peptide text beside a SMILES is read from it. * marks the point of attachment. ξ: configuration not given here. ξY = NC(Cc1ccc(O)cc1)C(=O)O; Cbz = O=C(OCc1ccccc1)*; OtBu = CC(C)(C)O*; tBu = CC(C)(C)*
molecular target: Glucagon-like peptide 1 receptor (Homo sapiens) (UniProt P43220); test: qHTS of GLP-1 Receptor Inverse Agonists (Inhibition Mode); conditions: HEK293 GLP-1R CRE-luciferase, luminescence, 24 h, GLP-1R form is constitutively active; activity change, negative = inhibition: at 38.3 µM (top of the series) unless noted; also: nearly all actives have a fitted effect of over 55% in size
UniProt P43220, sequence (P43220 whole entry, looked up): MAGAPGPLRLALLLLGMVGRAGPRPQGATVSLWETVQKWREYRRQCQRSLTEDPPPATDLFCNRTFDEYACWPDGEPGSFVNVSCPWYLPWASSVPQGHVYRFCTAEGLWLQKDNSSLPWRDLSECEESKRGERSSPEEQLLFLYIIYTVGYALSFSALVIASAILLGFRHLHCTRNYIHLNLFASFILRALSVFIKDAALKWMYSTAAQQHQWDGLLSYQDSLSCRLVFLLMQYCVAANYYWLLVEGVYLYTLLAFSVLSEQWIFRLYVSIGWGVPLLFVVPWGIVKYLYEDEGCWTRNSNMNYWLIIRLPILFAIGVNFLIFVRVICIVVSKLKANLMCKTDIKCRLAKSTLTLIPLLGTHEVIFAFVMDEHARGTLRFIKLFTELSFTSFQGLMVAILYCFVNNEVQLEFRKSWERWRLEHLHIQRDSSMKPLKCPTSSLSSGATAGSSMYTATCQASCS
Method in brief: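 Stable HEK293 clone (constitutively active GLP-1R + cAMP-response luciferase); 200 cells/uL plated, 12 h pre-culture, compound 24 hr, 37 deg C/5% CO2; detection reagent 12 min RT; luminescence.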
% is scaled to controls: 0 for no effect and ±100 for the full control effect; potency is read from the fitted curve at half-maximal effect; tags tell the direction and shape of the fitted curve.

| SMILES | Potency | activity change, negative = inhibition |
| --- | --- | --- |
| CC1(C)Cc2ccccc2-c2c1c(=O)n(Cc1ccccc1)c1nnnn21 | inconclusive [inhibitor, partial curve, poor fit] | – |
| S=C(NCCc1ccccc1)N/N=C/c1ccccc1Cl | inconclusive [inhibitor, single point] | – |
| CC1CN(C(=O)COc2ccc3ccccc3c2Br)CC(C)O1 (configuration not stated) | – | inactive: -48.7% |
| CSc1ccccc1NC(=O)Nc1cccc(F)c1 | inconclusive [inhibitor, single point] | – |
| Fc1ccc(N2CCN(Cc3cnc(Oc4ccc(Br)cc4)s3)CC2)cc1 | inconclusive [inhibitor, partial curve, poor fit] | – |
| COc1cc(Cl)c(C)cc1NC(=O)C1CCCN(c2ncnc3onc(-c4ccc(F)cc4)c23)C1 (configuration not stated) | inconclusive [inhibitor, partial curve, poor fit] | – |
| CN(C(=O)c1ccccc1)c1nc2ccccc2s1 | inconclusive [inhibitor, single point] | – |
| Cc1nnc(N/N=C/c2ccccn2)[nH]c1=O | inconclusive [inhibitor, full curve, poor fit] | – |
| CCNC(=O)CC1C(=O)N(c2ccc(F)cc2)C(=O)N1Cc1ccc(OC)c(OC)c1 (configuration not stated) | – | inactive: 1.92% |
| CCOc1ccc(C(=O)NCC(=O)OCc2cc(C(C)=O)ccc2OC)cc1 | – | inactive: 9.14% |
| COc1ccccc1/C=C/CN1CCCC(CO)(CCc2ccccc2)C1 (configuration not stated) | inconclusive [inhibitor, single point] | – |
| Cc1cc(C)c(N(C(=O)Cn2nnc3ccccc32)C(C(=O)NC(C)(C)C)c2ccsc2)c(C)c1 (configuration not stated) | inconclusive [inhibitor, partial curve, poor fit] | – |
| Cc1ccc(S(=O)(=O)N(C)c2ccc(OC(C)C(=O)N(C)c3ccccc3)cc2)cc1 (configuration not stated) | inconclusive [inhibitor, single point] | – |
| Cc1ccc(C(=O)N2CCN(c3cccc(Cl)c3)CC2)cc1-n1c(C)nc2cccnc21 | – | inactive: 0% |
| CC1(C)Cc2cccc(OCC(=O)Nc3ccccc3F)c2O1 | inconclusive [inhibitor, single point] | – |
| Cc1ccc(C(C(=O)NCC2CCCO2)N(Cc2ccccc2F)C(=O)Cn2nnc(-c3cccs3)n2)cc1 (configuration not stated) | inconclusive [inhibitor, full curve, poor fit] | – |
| COc1ccc(N2C(=S)NC3N2C(=S)NC3(C)c2ccccc2)cc1 (configuration not stated) | inconclusive [inhibitor, single point] | – |
| CC1(C)CC(=O)C/C(=N/NC(=O)COc2ccc3ccccc3c2Br)C1 | inconclusive [inhibitor, partial curve, poor fit] | – |
| CC(C)(CC(=O)NCc1ccc(Cl)cc1Cl)CC1=NS(=O)(=O)c2ccccc2N1 | active: 8.91 µM | – |
| CN1CCN(C(c2ccc(Br)cc2)c2cc(Cl)c3cccnc3c2O)CC1 (configuration not stated) | inconclusive [inhibitor, partial curve, poor fit] | – |
| COc1ccc(CCCNC(=O)C2(C)Cc3c(-c4cccc(C(N)=O)c4)ccnc3O2)cc1 (configuration not stated) | inconclusive [inhibitor, single point] | – |

| SMILES | Potency | activity change, negative = inhibition |
| --- | --- | --- |
| Cn1c2c(c(=O)n(C)c1=O)C(c1ccccc1C(F)(F)F)CC(=O)N2 (configuration not stated) | – | inactive: -13.3% |
| CCOC(=O)[C@@H]1[C@H]2COc3ccc(Br)cc3[C@@H]2N2C(=O)N(c3ccc(F)cc3)C(=O)[C@@]12C | – | inactive: -12.5% |
| COc1cccc2cc(C(=O)NCCc3ccccc3)oc12 | inconclusive [inhibitor, single point] | – |
| O=C1c2ccccc2-c2onc3ccc(Oc4ccccc4)c1c23 | inconclusive [inhibitor, single point] | – |
| COc1ccc(S(=O)(=O)c2cc3cc(C(C)(C)C)cc(O)c3oc2=O)cc1 | inconclusive [inhibitor, single point] | – |
| Cc1ccc(-c2cc3onc(-c4ccccc4)c3c(=O)n2C)cc1 | inconclusive [inhibitor, full curve, poor fit] | – |
| CN(CC(=O)Nc1ccccc1C(F)(F)F)C(=O)c1ccccc1Sc1ccccc1C#N | inconclusive [inhibitor, partial curve, poor fit] | – |
| Cn1c(COc2ccccc2C(C)(C)C)nc2ccccc21 | inconclusive [inhibitor, single point] | – |
| CC(C)(C)OC(=O)C(Cc1ccc(OC(C)(C)C)cc1)NC(=O)CNC(=O)OCc1ccccc1 (stereo not drawn) (Cbz-Gly-[ξY](tBu)-OtBu) | inconclusive [inhibitor, partial curve, poor fit] | – |
| CC(NC(=O)/C(C#N)=C/c1ccc(Cl)c([N+](=O)[O-])c1)c1ccccc1 (configuration not stated) | inconclusive [inhibitor, single point] | – |
| Cc1ccc(NC(=O)CSc2nc3ccccc3c(=O)n2CC2CCCO2)cc1 (configuration not stated) | – | inactive: -11.4% |
| COc1ccc([C@H]2CC(=O)C=C(c3ccc(F)cc3OCc3ccccc3)C2)cc1 | inconclusive [inhibitor, partial curve, poor fit] | – |
| COc1ccccc1NS(=O)(=O)c1cccc(C(=O)N(C)Cc2cccs2)c1 | – | inactive: -30.6% |
| c1ccc(C[C@H]2CN=C(Nc3ccccc3)N2CC2CCCC2)cc1 | inconclusive [inhibitor, single point] | – |
| CC(C)Oc1ccc(CNC(=O)CN2C(=O)c3cccnc3Oc3ccc(Cl)cc32)cc1 | inconclusive [inhibitor, single point] | – |
| CCOC(=O)N1CCC(N(C(=O)Nc2ccc(Cl)c(Cl)c2)C(C)CC)CC1 (configuration not stated) | inconclusive [inhibitor, single point] | – |
| CCc1ccc(NC(=O)CN2CCCN(S(=O)(=O)c3ccc(F)cc3)CC2)cc1 | active: 5.01 µM | – |
| Cc1cc(S(=O)(=O)N2CCN(CC(=O)NCCc3cccs3)CC2)ccc1Br | inconclusive [inhibitor, single point] | – |
| Cc1ccc2c(c1)N(C(=O)Nc1ccc(Br)cc1F)CCO2 | – | inactive: 3.59% |
| CCOc1ccccc1NS(=O)(=O)c1c[nH]c(C(=O)OC)c1 | inconclusive [inhibitor, partial curve, poor fit] | – |
| CC(C)CCSc1nc(N2CCOCC2)c2c(c1C#N)CC(C)(C)OC2 | – | inactive: 0% |

| SMILES | Potency | activity change, negative = inhibition |
| --- | --- | --- |
| Cc1ccc2nc(N(CCN(C)C)C(=O)c3cc(Cl)sc3Cl)sc2c1 | inconclusive [inhibitor, single point] | – |
| CCOC(=O)c1c(NC(=O)COc2ccccc2)sc2c1CC(C)(C)NC2(C)C | inconclusive [inhibitor, partial curve, poor fit] | – |
| CCN1CCN(CC(=O)Nc2sc3c(c2C#N)CCC3)CC1 | inconclusive [inhibitor, partial curve, poor fit] | – |
| CC(=O)c1sc(Nc2nc3ccc(F)cc3s2)nc1C | inconclusive [inhibitor, single point] | – |
| O=C(NCc1ccccc1)C(=O)NCC1COc2ccccc2O1 (configuration not stated) | inconclusive [inhibitor, partial curve, poor fit] | – |
| CCNC(=S)N/N=C(\C)c1ccc2ccccc2c1OC(F)F | inconclusive [inhibitor, partial curve, poor fit] | – |
| Oc1c(Cl)cc(Cl)c2cccnc12 | inconclusive [inhibitor, full curve, poor fit] | – |
| COc1ccc(C(=O)C[n+]2ccc(N)c(C)c2C)cc1 | inconclusive [inhibitor, single point] | – |
| CCC(C(=O)Nc1cc(C)cc(C)n1)c1ccccc1 (configuration not stated) | inconclusive [inhibitor, partial curve, poor fit] | – |
| Cc1ccc(NC(=O)CSc2nnc(-c3cc4occc4n3C)n2-c2ccccc2C)c(C)c1 | inconclusive [inhibitor, single point] | – |
| CN(Cc1nc(Cc2cccc(C(F)(F)F)c2)no1)C1CC(C)(C)NC(C)(C)C1 | inconclusive [inhibitor, partial curve, poor fit] | – |
| CCCCCCCCN1C(=O)[C@H](CC(=O)N2CCC(c3ccccc3)CC2)C[C@@]2(C(=O)OC)CCCCC=C12 | inconclusive [inhibitor, single point] | – |
| C=CCn1c(COc2ccccc2F)nnc1SCC(=O)Nc1cc2oc3ccccc3c2cc1OC | inconclusive [inhibitor, full curve, poor fit] | – |
| Cc1ccc(C(NC(=O)C2CCN(Cc3ccc(Oc4ccccc4)cc3)CC2)c2ccccn2)cc1 (configuration not stated) | inconclusive [inhibitor, single point] | – |
| c1ccc(-n2c3ccccc3c3ccccc32)cc1 | inconclusive [inhibitor, partial curve, poor fit] | – |
| Cc1ccc2nc(-c3ccc(NC(=O)COC(=O)c4ccc(=O)[nH]c4)cc3)sc2c1 | inconclusive [inhibitor, single point] | – |
| CN1CCN(S(=O)(=O)c2ccc(NC(=O)Cc3ccc([N+](=O)[O-])cc3)cc2)CC1 | – | inactive: -14.1% |
| N=C1SCC(=O)N1c1ncc(Cc2cccc(Cl)c2)s1 | inconclusive [inhibitor, partial curve, poor fit] | – |
| CCOC(=O)N1CCN(C(=O)c2cc3c(s2)-c2c(C)cccc2OC3)CC1 | inconclusive [inhibitor, single point] | – |
| CC(=O)NC(c1cccc(F)c1)c1nc(-c2cnn(C)c2)cs1 (configuration not stated) | – | inactive: 3.6% |
